Results from PubChem BioAssay AID1347165 (National Center for Advancing Translational Sciences (NCATS), 2019).
Among all 220,000 compounds or so, about 5,700 (2.6%) were called active. Inconclusive means that the source gave no clear call. Such entries were picked first, then a sample of the others. The call rests on the fitted dose curve; in most records, active means well fitted inhibition curve with a large enough effect; inconclusive means small, poorly fitted or top-dose-only effect; inactive means no such curve, though single readings can be large or run the other way. Potencies of inconclusive entries are doubtful fits and often do not repeat.

These compounds were tested against Lysine-specific demethylase 5B (Homo sapiens) (UniProt Q9UGL1) (assay: Primary screen for KDM5B Histone Demethylases FDH-coupled qHTS). Details: FDH-coupled NADH fluorescence (FDH is formaldehyde dehydrogenase); activity change, negative = inhibition: at 57.7 µM (top of the series) unless noted.
Sequence of UniProt Q9UGL1 (Q9UGL1 whole entry, looked up): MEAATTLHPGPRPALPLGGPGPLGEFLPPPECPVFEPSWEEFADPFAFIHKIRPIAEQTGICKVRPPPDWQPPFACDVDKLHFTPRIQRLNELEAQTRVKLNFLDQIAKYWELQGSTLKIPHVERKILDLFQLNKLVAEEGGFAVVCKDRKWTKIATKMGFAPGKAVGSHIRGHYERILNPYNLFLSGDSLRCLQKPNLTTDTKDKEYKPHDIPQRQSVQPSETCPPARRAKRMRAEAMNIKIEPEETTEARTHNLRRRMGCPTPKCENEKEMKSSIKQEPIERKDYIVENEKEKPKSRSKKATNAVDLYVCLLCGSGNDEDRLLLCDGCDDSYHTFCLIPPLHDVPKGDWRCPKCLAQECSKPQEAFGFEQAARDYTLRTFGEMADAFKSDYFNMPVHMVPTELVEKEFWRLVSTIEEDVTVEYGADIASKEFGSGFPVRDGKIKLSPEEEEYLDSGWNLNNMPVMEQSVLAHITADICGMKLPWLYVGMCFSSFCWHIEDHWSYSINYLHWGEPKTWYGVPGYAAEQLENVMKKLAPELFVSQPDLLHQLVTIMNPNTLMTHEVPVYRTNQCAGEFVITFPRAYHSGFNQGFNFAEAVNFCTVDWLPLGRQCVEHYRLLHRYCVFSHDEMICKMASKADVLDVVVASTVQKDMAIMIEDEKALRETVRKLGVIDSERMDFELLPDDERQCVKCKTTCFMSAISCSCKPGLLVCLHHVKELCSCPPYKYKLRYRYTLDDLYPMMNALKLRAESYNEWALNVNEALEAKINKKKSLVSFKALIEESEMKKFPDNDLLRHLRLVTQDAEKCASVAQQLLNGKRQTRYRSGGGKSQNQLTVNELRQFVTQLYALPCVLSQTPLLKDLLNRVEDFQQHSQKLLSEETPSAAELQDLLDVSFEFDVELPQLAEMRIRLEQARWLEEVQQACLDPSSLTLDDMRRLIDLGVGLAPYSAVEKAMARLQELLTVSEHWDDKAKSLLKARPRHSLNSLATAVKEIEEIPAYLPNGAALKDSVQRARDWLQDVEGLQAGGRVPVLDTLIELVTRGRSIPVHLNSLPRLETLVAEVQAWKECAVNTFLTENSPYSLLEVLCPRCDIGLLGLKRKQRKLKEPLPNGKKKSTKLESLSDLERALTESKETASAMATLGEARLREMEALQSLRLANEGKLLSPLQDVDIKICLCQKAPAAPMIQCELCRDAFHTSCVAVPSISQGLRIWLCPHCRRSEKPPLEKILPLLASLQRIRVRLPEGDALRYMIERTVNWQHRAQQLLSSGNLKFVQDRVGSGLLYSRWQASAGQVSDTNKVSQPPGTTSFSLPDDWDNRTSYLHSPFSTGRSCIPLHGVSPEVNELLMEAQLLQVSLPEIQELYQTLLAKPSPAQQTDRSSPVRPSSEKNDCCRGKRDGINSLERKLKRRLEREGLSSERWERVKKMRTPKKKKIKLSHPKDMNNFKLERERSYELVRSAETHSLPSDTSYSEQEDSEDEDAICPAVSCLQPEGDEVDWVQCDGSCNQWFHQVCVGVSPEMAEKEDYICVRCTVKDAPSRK
Procedure, shortened: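 KDM5BΔAP (200 nM final) in 50 mM HEPES pH 7.5, 0.01% Tween-20 was preincubated 10 min at RT with compound over a concentration range. Substrate mix (H3K4me3 12.5 µM, α-KG 25 µM, Fe²⁺, ascorbate, NAD⁺, FDH) was added, and NADH fluorescence change over 30 min gave dose-response curves.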
Further: nearly all actives have a fitted effect of over 70% in size.
Potency means the concentration at half of the fitted maximal effect; tags describe the fitted curve by direction and shape.
Wherever activity change, negative = inhibition is given: 0% is about no effect.

| SMILES | Potency | activity change, negative = inhibition |
| --- | --- | --- |
| Cc1ccccc1-c1cnc2[nH]cc(CC(=O)NCCN(C)C)c2c1 | active: 35.5 µM |  |
| CCN1CCN(c2nc3ccccc3nc2C(C#N)S(=O)(=O)c2ccc(OC)cc2)CC1 (centres undefined) | inactive |  |
| O=C(CCc1ccccc1)N1CCc2c([nH]c3ccccc23)C1c1ccc(F)cc1 (centres undefined) |  | inconclusive: -36.9% [inhibitor] |
| O=C(NCCc1csc(-c2ncccn2)n1)C1NCCc2[nH]cnc21 (centres undefined) | inactive |  |
| CCC(=O)c1c(N)cc(C)oc1=O | inactive |  |
| CN(C)c1cccc(C(=O)NC2CCN(c3cn[nH]c(=O)c3)CC2)c1 | inconclusive: 25.1 µM [inhibitor, partial curve, poor fit] |  |
| O=C(CSc1nc(Cl)nc2nc[nH]c12)Nc1ccc(OC(F)(F)F)cc1 | inactive |  |
| Cc1ccc(S(=O)(=O)N2CC[C@H](c3n[nH]c(C)n3)[C@H](NC(=O)CN(C)C)C2)cc1 | inactive |  |
| COCCCNC(=O)Nc1c(NC2CCCC2)c2ccccc2oc1=O | inactive |  |
| O=C(c1nc2nc(-c3ccco3)cc(C(F)(F)F)n2n1)N1CCCCCC1 | inconclusive: 25.1 µM [inhibitor, partial curve, poor fit] |  |
| CN(C)c1nccnc1OC1CCN(C(=O)c2ccccn2)C1 (centres undefined) | inconclusive: 20 µM [inhibitor, partial curve] |  |
| O=C(Nc1ccc(F)cc1F)N[C@H]1C[C@H]2C(=O)NC[C@@H](CCC(=O)N3CCc4ccccc43)N2C1 | inconclusive: 35.5 µM [inhibitor, single point] |  |
| CCCCc1ccc(NC(=O)c2ccc3c(c2)CCN3S(=O)(=O)c2ccccc2)cc1 | inconclusive: 39.8 µM [inhibitor, single point] |  |
| CN(C)C(=O)c1cc(-c2ccccc2S(C)(=O)=O)c2cccn2n1 | inactive |  |
| COc1cc(/C=C(/C#N)C(=O)Nc2cccc(C(F)(F)F)c2)cc(OC)c1OC | inconclusive: 31.6 µM [inhibitor, single point] |  |
| O=C(CCc1cc(Cl)no1)N(CCS(=O)(=O)N1CCOCC1)Cc1ccncc1 | inconclusive: 15.8 µM [inhibitor, partial curve, poor fit] |  |
| O=C(c1nc(-c2ccc(Cl)cc2Cl)c2ccccn12)N1CCN(c2ncccn2)CC1 | inconclusive: 56.2 µM [inhibitor, partial curve, poor fit] |  |
| CC(C)Cn1cc(C(=O)N2CCN(c3cccc(Cl)c3)CC2)c2c3ccccc3n(C)c2c1=O | inconclusive: 35.5 µM [inhibitor, partial curve, poor fit] |  |
| COCC1CN(C)CC12CCN(Cc1cnn(C(C)C)c1)CC2 (centres undefined) | inconclusive: 15.8 µM [inhibitor, partial curve] |  |
